The values below come from paper PMC12136788.

T1: UNK ZnF1-6 (called full-length) (human, UniProt Q9C0B0 30-357)
T1 sequence: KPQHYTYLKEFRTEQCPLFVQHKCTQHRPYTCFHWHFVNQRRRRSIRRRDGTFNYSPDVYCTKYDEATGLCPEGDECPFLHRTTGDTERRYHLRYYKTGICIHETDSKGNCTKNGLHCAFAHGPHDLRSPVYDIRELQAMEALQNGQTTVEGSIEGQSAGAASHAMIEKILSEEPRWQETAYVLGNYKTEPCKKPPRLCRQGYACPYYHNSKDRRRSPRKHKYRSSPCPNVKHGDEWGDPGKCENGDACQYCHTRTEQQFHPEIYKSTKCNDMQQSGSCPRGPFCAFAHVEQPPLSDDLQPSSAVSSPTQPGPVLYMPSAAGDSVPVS

B1: chr1:85267750:85267865:-|CDS|ENSG00000142867|unk|total|mutant (ssRNA)
RNA: GGGAGUUCUACAGUCCGACGAUCAGGAGAAUCCAGCACGACGCCCUUUUUUUCUACUAAUUCUUCUCUGAAUUUGCCUGUUCCCGAAGCCGGCAGAACUGAAAAUACCAUCUUCUCUUCAACUACACUUCCCAGACCUGGGGACAACAGAGGAUUGAGCAUCA
B2: chr21:29063390:29063550:-|CDS|ENSG00000156261|unk|total|mutant (ssRNA)
RNA: GGGAGUUCUACAGUCCGACGAUCGUUUACUUGUUUUGCCAGGGAACAGUGUUGAUAAAGACUGCUGAAGAAUUGAUGAAUUUCCGUAAGGGAGAAGAAAACCUCAUGGAUGCACAAGUCAAAGCUAUUGCUGAUACUGGUGCACAACAGAGGAUUGAGCAUCA
B3: chr9:69711526:69711627:-|3pUTR|ENSG00000188647|unk|FALSE|unique (ssRNA)
RNA: GGGAGUUCUACAGUCCGACGAUCGAACUGCUGUAGUCUUCUGCAAUCAGUCUCUGUAUUGGUAUAUCCAGUACUAUCGGGUUUAGGUUCUUUUUAUUUUUCCUUAAAUCUUACUUGUUUCUAGCGUCUUAAGAGUGGUAAUGGCAACAGAGGAUUGAGCAUCA
B4: chr7:158734047:158734148:-|3pUTR|ENSG00000117868|msi1_unk|FALSE|overlapping (ssRNA)
RNA: GGGAGUUCUACAGUCCGACGAUCCUACCCGGAACACACCCUCUCACAGACGUACCAAUGUUAUUUUUAUAAUUUCAUGGAUUUAGUUAUACAUACCUUAAUAGUUUUAUAAAAUUGUUGACAUUUCAGGCAAAUUUGGCCAAUCAACAGAGGAUUGAGCAUCA
B5: chr3:179334110:179334217:+|CDS|ENSG00000121864|unk|total|mutant (ssRNA)
RNA: GGGAGUUCUACAGUCCGACGAUCACAUACAAAAAUUUUUCCUCAUGUUUGUGAUGACUGUGGGAAAGGCUUUUCAAGUAUGCCCGAAUAUUGCAAGCAUUUAAAUUCACAUUUAUCUGAAGGGAUUUAUUUAUGUCAAUAUUGCAACAGAGGAUUGAGCAUCA
B6: chr7:149103614:149105566:-|CDS|ENSG00000204947|control|control|control (ssRNA)
RNA: GGGAGUUCUACAGUCCGACGAUCGAGACCCCAGGGCGCUUAGAAAUUCCCACAGGGCCAAGAUGCUAUUCCUGCUAUGUCUGUAGGAAAGUCUUCCAAGUAAGGAGGGAUUUGCUAAAGCACAAACGGAGCCACUCCAAGAGCCAACAGAGGAUUGAGCAUCA
B7: chr12:52430540:52430705:-|CDS|ENSG00000170454|control|control|control (ssRNA)
RNA: GGGAGUUCUACAGUCCGACGAUCCAGGUCGGUGACACAUCCGUGGUGCUGUCCAUGGACAACAACCGCAACCUGGACCUGGAUAGUAUCAUCGCCGAGGUCAAAGCACAAUACGAGGACAUUGCCAACCGCAGCCGGGCCGAGCAACAGAGGAUUGAGCAUCA
B8: chr3:98799072:98799370:-|3pUTR|ENSG00000057019|msi1|FALSE|unique (ssRNA)
RNA: GGGAGUUCUACAGUCCGACGAUCCAAAGCAUCGUUUUAAAGCACAUGGCCUUUUUUUUUUAAUUAUUAGUGGUAGUAAUAUAUAGAAUGUAUUACAUAACUGUCACUGAAGUGGUUGGGGAAAAUGUGGUGACUGAGGUACAGCAACAGAGGAUUGAGCAUCA
B9: chr3:48432659:48432768:-|CDS|ENSG00000164051|unk|FALSE|unique (ssRNA)
RNA: GGGAGUUCUACAGUCCGACGAUCAGUCCCCCGACCAGAGACAGAGAUGUAGAUGUCCUUUCAGCUGCCUUGAAAGAGCAGCUUAGUCAUUCCAGGCAAGUCCAUUCAUGUCUAGAAGGCUUACGAGAGCAGCUUGAUGGCCUACAACAGAGGAUUGAGCAUCA
B10: chr5:154817497:154817598:+|3pUTR|ENSG00000155506|msi1_unk|FALSE|overlapping (ssRNA)
RNA: GGGAGUUCUACAGUCCGACGAUCUUAUUGAGAGUAUCUGCUUUCCAGGCUGAAGUGAUUCAUUCAUUAUUCUAGUCCUGCUUUAGUCCUUUGUAAUUUGUGGUAAUUAUGCUUUUCUUUUUAAUACAAAAAAAUGUAUAAAAACAACAGAGGAUUGAGCAUCA
B11: chr5:151662744:151662768:-|3pUTR|ENSG00000113140|msi1_unk|FALSE|overlapping (ssRNA)
RNA: GGGAGUUCUACAGUCCGACGAUCGGGGCUCUAGGGACUGCCAGGCUGUUUCAGCCAGGAAGGCCAAAAUCAAGAGUGAGAUGUAGAAAGUUGUAAAAUAGAAAAAGUGGAGUUGGUGAAUCGGUUGUUCUUUCCUCACAUUUGCAACAGAGGAUUGAGCAUCA
B12: chr10:110898111:110898227:+|3pUTR|ENSG00000150593|unk|total|mutant (ssRNA)
RNA: GGGAGUUCUACAGUCCGACGAUCAUAAGAACUCUUGCAGUCUCCGAUGUUAUAAAAAUAUAUAUCUGAAUUGUAAGAGUUGUCCGCACAAGUUUUUUUUUUUUUUUUUUUUAAGCACUUGUUUUGGGUACAAGGCAUUUCUGACAACAGAGGAUUGAGCAUCA
B13: chr12:76028505:76028606:-|3pUTR|ENSG00000139289|msi1|total|mutant (ssRNA)
RNA: GGGAGUUCUACAGUCCGACGAUCAAGUCUUGGUCAGUAUUUUUCCAGCAUUUAAAUUGAAACGGUCAGUAUCCGACCACUGCCCGGUUAUGCCGUCAAGAAAUAAAAACCGAAUUACAUGCUACAGAUGUCUUUAUUCUCCUUCAACAGAGGAUUGAGCAUCA
B14: chr1:93361585:93361687:+|3pUTR|ENSG00000117505|unk|total|mutant (ssRNA)
RNA: GGGAGUUCUACAGUCCGACGAUCUUUAACUUGCCGUUACCGUUUACUUAUUGUUUUCCGAAUUACUUUUACAUUUUCCCAACCCGAUGGCCCCGAGUCCAACAUUACCUUUUGAGAUGACAUUAUUGUCUCCAUAAUUGAGUGCAACAGAGGAUUGAGCAUCA
B15: ENSG00000136451:be:win_1351|CDS|ENSG00000136451|bound_else_gene|NA|bound_elsewhere_windowed (ssRNA)
RNA: GGGAGUUCUACAGUCCGACGAUCCCAUUAUCCAUGACCUCUCCUUUAACACUCACUACCCCAGUCAACCUCCCCACCCCCGUCACUGCCCCAGUGAAUAUAGCACACCCUGUCACCAUCACAUCUCCAAUGAAUCUACCCACACAACAGAGGAUUGAGCAUCA
B16: ENSG00000110321:stop:overlap|stop_codon|ENSG00000110321|stop_codon|NA|stop_codon (ssRNA)
RNA: GGGAGUUCUACAGUCCGACGAUCACAACUCCGCAAACGAAAAAGAACGACAUGAUGCAAUCUUCAGGAAAGUAAGAGGGAUCUAGGGGUGUUUAUUCCUGCUCCUAUGGCUCAAGGGAUGAGAAGUGACUUCUUUCUGGAGGGCAACAGAGGAUUGAGCAUCA
B17: chr3:23980279:23980388:+|3pUTR|ENSG00000174738|unk|FALSE|unique (ssRNA)
RNA: GGGAGUUCUACAGUCCGACGAUCUUUUUCUUUUCCAAUAUAAAGUUUGCUGAAUGUACAAGAAGAGUUUAUCACUUAGGAUAUAGAAUUUUUUUAGGGGUUGGGGGAGGGGAUCUGUUAGGAAACUGUUACCUAUAAACAAAGCAACAGAGGAUUGAGCAUCA
B18: chr4:87981664:87981765:+|CDS|ENSG00000118785|msi1|total|mutant (ssRNA)
RNA: GGGAGUUCUACAGUCCGACGAUCCACUGAUUUUCCCACGGACCUGCCAGCAACCGAAGUUUUCACUCCAGUUGUCCCCACAGCCGACACAUAUGAUGGCCGAGGUGACCGUGUGGUUUAUGGACUGAGGUCAAAAUCUAAGAACAACAGAGGAUUGAGCAUCA
B19: chr1:225496770:225496921:-|3pUTR|ENSG00000154380|msi1|FALSE|unique (ssRNA)
RNA: GGGAGUUCUACAGUCCGACGAUCUUUUUUAAUUGCAGACAGUAAUGCAUGUCACACUAAUAUGUAGUGGCCUUUUCAAGGCCUAGUCCCAGGGAAAACAUUUUGUAGAGUAUAGGGGAGUGGGAGGAAGGGGAGGAAUAAUUUCAACAGAGGAUUGAGCAUCA
B20: chr8:78602526:78602623:+|3pUTR|ENSG00000171033|msi1_unk|total|mutant (ssRNA)
RNA: GGGAGUUCUACAGUCCGACGAUCUUGUAUGUUGAUGAGUUGAUUAAGUCUAACAGAUUCAUCAAGACUCCAUUGCUUUAUUACCGAGACAUUUGAAAAUAUCCAUUAAUGUGAAUAUCACCUGAAUUCAGUCUGUUUGGUGUCCAACAGAGGAUUGAGCAUCA
B21: ENSG00000198589:be:win_1301|CDS|ENSG00000198589|bound_else_gene|NA|bound_elsewhere_windowed (ssRNA)
RNA: GGGAGUUCUACAGUCCGACGAUCCAUCUCCUAAGGACAACCCUUCAAUUUUUGUUCAUUCACCACAUGCACUCAUGCUCCAGGAUGUAAAGGCAGUUUUAACACAUUCCAUCCAAAGUGCAAUGCAUUCAAUUGGAGGAGUACCAACAGAGGAUUGAGCAUCA
B22: chr12:64421256:64421371:+|CDS|ENSG00000184575|unk|FALSE|unique (ssRNA)
RNA: GGGAGUUCUACAGUCCGACGAUCGUUGACUUCCUGGCCAGAUUUUCUAAGUUGGUAAAUGGAAUGGGACAGUCAUUGAUAGUUAGUUGGAGUAAAUUAAUUAAGAAUGGGGAUAUUAAGAAUGCUCAAGAGGCACUACAAGCUCAACAGAGGAUUGAGCAUCA

The list shows a part of the results.

The test addresses T1, UNK ZnF1-6 (called full-length). The test can be described thus: nsRBNS (natural sequence RNA bind-n-seq); RBNS binding buffer (assumed for nsRBNS): 25 mM Tris pH 7.5, 150 mM KCl, 3 mM MgCl2, 0.01% Triton X-100, 500 ug/ml BSA, 20 U/ml SUPERase-In, 4 C; UNK is unkempt and MSI1 is Musashi-1; names of the RNAs are library labels; protein concentration not given here; high values mean tight binding.
Molecule B1 gave a binding signal of 0.604 enrichment R.
Next, B2: 0.432 enrichment R.
For B3, the binding signal is 5.54 enrichment R.
The molecule B4 gave a binding signal of 33.1 enrichment R.
With B5 the figure was 0.481 enrichment R; with B6, 0.58 enrichment R; with B7, 0.641 enrichment R.
For the molecule B8, the binding signal was determined as 1.95 enrichment R.
Take B9: the binding signal is 0.616 enrichment R.
Next, B10: 1.93 enrichment R; B11: 1.75 enrichment R.
With B12 the figure was 1.54 enrichment R; with B13, 0.271 enrichment R; with B14, 4.48 enrichment R.
Next, B15: 1.83 enrichment R; B16: 0.852 enrichment R; B17: 3.03 enrichment R.
In the case of B18, the binding signal worked out at 0.533 enrichment R.
Next, B19: 7.59 enrichment R; B20: 0.349 enrichment R.
With B21 the figure was 0.354 enrichment R; with B22, 0.995 enrichment R.
